The campaign covered roughly 310,000 compounds. About 14,000 (4.5%) showed an effect of 50% or more. Effects have a minus sign here. The list shows a part of the results.
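Also: peak tail current of the secondary pulse compared with the same well before compound.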

Sequence of human ether-à-go-go-related gene (hERG) potassium channel (Q12809 whole entry, looked up): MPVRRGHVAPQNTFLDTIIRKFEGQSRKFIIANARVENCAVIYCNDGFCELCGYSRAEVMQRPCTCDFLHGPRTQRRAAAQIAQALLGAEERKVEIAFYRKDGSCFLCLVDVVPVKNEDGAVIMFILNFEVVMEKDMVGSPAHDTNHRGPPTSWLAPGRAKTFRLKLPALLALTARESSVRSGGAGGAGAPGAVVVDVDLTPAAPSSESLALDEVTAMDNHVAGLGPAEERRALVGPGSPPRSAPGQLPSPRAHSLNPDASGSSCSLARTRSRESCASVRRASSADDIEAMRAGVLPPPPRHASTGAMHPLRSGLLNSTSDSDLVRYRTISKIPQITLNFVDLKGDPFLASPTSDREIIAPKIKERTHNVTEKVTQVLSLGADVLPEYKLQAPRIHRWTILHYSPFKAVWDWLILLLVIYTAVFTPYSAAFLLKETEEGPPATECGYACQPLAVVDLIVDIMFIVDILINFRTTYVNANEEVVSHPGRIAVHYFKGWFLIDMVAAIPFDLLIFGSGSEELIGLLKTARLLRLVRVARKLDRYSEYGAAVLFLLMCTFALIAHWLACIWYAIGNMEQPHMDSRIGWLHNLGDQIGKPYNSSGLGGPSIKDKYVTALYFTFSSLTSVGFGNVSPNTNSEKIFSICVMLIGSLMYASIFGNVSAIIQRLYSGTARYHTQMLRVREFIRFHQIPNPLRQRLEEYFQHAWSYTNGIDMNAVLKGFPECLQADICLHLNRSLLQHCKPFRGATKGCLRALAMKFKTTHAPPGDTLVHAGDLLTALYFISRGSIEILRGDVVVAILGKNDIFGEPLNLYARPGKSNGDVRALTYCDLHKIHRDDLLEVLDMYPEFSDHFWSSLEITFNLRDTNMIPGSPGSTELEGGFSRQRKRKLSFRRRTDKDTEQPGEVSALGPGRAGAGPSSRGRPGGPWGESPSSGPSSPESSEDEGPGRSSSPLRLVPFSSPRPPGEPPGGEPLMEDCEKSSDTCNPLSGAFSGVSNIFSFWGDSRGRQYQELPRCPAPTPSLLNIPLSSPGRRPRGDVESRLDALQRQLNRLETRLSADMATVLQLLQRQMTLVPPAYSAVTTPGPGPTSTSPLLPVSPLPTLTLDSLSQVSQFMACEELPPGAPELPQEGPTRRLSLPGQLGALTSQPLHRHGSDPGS

The test has as its target human ether-à-go-go-related gene (hERG) potassium channel (human, UniProt Q12809). The test can be described thus: primary screen, population patch clamp on CHO cells stably expressing hERG.
For `CCc1nnc(NC(=O)c2ccc(OC)cc2)s1`, the “hERG current change (%, negative = inhibition) at 10uM” value turned out to be 16.4%.

Regarding `O=Cc1cccn1-c1ccc2ccccc2c1`, the “hERG current change (%, negative = inhibition) at 10uM” value is on record as -16.1%. To `N#Cc1ccc2ccn(CC(=O)NCc3ccccc3)c2c1` belongs -1.22%; to `Cc1ccc(-c2nc3c(c(=O)c4ccccc4n3C)c(=O)n2-c2ccccc2)cc1`, 4.79%; to `C/C(CC(=O)N1CCN(C=O)CC1)=N\NC(=O)c1ccc([N+](=O)[O-])cc1`, 2.24%. As to `CCN(CC)S(=O)(=O)c1ccc(NC(=O)c2cc(-c3ccccc3)nc3ccccc23)cc1`, the “hERG current change (%, negative = inhibition) at 10uM” value came to 1.64%. To `CC1(C)C(c2ccccc2)=[N+]([O-])C2(CCCCC2=O)N1O` (centres unmarked) belongs -0.325%; to `COc1cc(/C=N/NC(=O)c2ccc(N3CCCC3=O)cc2)ccc1O`, 27.7%. To `COc1cccc(NC(=O)c2ccc(NC(=O)C(C)(C)C)cc2)c1` belongs 24.9%. For the molecule `Cc1ccccc1CN(C)C1CCN(C)CC1`, the “hERG current change (%, negative = inhibition) at 10uM” value was determined as 28.2%. As for `Cc1nn(-c2ccccc2)c(C)c1C(=O)OCc1ccc(C#N)cc1`, the “hERG current change (%, negative = inhibition) at 10uM” value is on record as -34.9%. To `CC(=O)Nc1cccc(-c2csc(Nc3cccc(C)n3)n2)c1` belongs -5.45%; to `COc1ccc(CCNC(=O)NC23CC4CC(CC(C4)C2)C3)cc1OC`, 2.84%; to `CC1CCc2c(sc(NC(=O)c3cccs3)c2C(=O)O)C1` (centres unmarked), 34.7%. To `Cc1cc(C(=O)OCC(=O)N(CC(C)C)c2c(N)n(Cc3ccccc3)c(=O)[nH]c2=O)c2ccccc2n1` belongs -9.62%; to `COc1ccccc1NC(=O)COc1ccc(C(=O)OCC(=O)NC(C)(C)C)cc1OC`, 3.03%. Turning to `CNS(=O)(=O)c1cc(Nc2ncnc3sccc23)ccc1C`, the “hERG current change (%, negative = inhibition) at 10uM” value was determined as 20.7%. To `Cc1cccc(N2CCN(c3cc(C)nc4nnnn34)CC2C)c1` (centres unmarked) belongs -53.1%; to `CCCCNC(=O)CCn1nc(-c2ccc(Cl)cc2)c2ccccc2c1=O`, -37.9%; to `CCN(C(=O)CSc1nnc2ccccn12)C1CCS(=O)(=O)C1` (centres unmarked), 29.7%.

In the case of `COc1ccc(OC)c(/C=N\Nc2nccs2)c1`, the “hERG current change (%, negative = inhibition) at 10uM” value was determined as 13.2%. To `COc1ccc(-c2cc3nc(C)cc(NCCO)n3n2)cc1` belongs -33.6%; to `CCc1ccc(CN2CCCC(CNC(=O)c3cc(OC)cc(OC)c3)C2)cc1` (centres unmarked), -69.9%. To `COc1ccc(C(=O)NC(C)c2ccc(-n3ccnc3)cc2)cc1[N+](=O)[O-]` (centres unmarked) belongs -77.9%.

For `Cl.Nc1csnc1C(=O)O`, the “hERG current change (%, negative = inhibition) at 10uM” value is given as -7.4%.

In the case of `CCOC(=O)Cn1c(=NC(=O)C(C)(C)C)sc2cc([N+](=O)[O-])ccc21`, the “hERG current change (%, negative = inhibition) at 10uM” value is -6.47%.

As for `Cc1cccc(C)c1Nc1ncnc(N)c1[N+](=O)[O-]`, the “hERG current change (%, negative = inhibition) at 10uM” value is 7.83%. For `CCCCn1c(N)c(N(CCC(C)C)C(=O)C2CC(=O)N(c3cccc(SC)c3)C2)c(=O)[nH]c1=O` (centres unmarked), the “hERG current change (%, negative = inhibition) at 10uM” value was -0.933%.

`CCCCn1cnc2c1c(=O)n(C)c(=O)n2C`: the “hERG current change (%, negative = inhibition) at 10uM” value was 9.21%. To `COC(=O)c1ccccc1N(Cc1ccccc1)S(C)(=O)=O` belongs 9.77%; to `CC1=NOC(=O)/C1=C\c1ccc(-c2ccc(Br)cc2C(=O)O)o1`, 24.7%. To `Cc1cc(=O)n2nc(N3CCCC(C(=O)NCCc4ccc(Cl)cc4)C3)sc2n1` (centres unmarked) belongs -46.3%. To `CC(=O)Nc1ccc(SCC(=O)Nc2sccc2C#N)cc1` belongs 21.2%; to `CCC(CC)N1CCN(C(=O)c2cccc(Cl)c2)CC1.O=C(O)C(=O)O`, -2.55%. On to `O=C(NCc1ccc(N2CCCC2=O)cc1)Nc1cccc(Cl)c1`, for which the “hERG current change (%, negative = inhibition) at 10uM” value is -12.1%.

As for `COc1cccc(CNC(=O)CN2C(=O)CC(c3ccccc3)=Nc3ccccc32)c1`, the “hERG current change (%, negative = inhibition) at 10uM” value is recorded as -13%.

On to `COc1ccc(-n2c(CSc3nc(C)cc(C)n3)nnc2SCC(=O)Nc2nccs2)cc1`, for which the “hERG current change (%, negative = inhibition) at 10uM” value was -13.2%.

With `Cc1c(NC(=O)CSCc2ccc(Cl)cc2Cl)cccc1C(=O)O`, the “hERG current change (%, negative = inhibition) at 10uM” value worked out at 4.41%. To `CN(C)CCOC(=O)C1(c2ccccc2)CCCC1.Cl` belongs 1.62%. With `Cc1ccc(NC(=O)CSc2nc(N)c3c4c(sc3n2)CSC(C)(C)C4)cc1`, the “hERG current change (%, negative = inhibition) at 10uM” value came out at 14.2%. To `CC(=O)c1ccc(NC(=O)NC2CCCc3ccccc32)cc1` (centres unmarked) belongs -2.21%. To `O=C(O)c1cccnc1SCc1ccc([N+](=O)[O-])cc1` belongs 15.8%. To `Cl.Oc1ccc(Cl)cc1CNCc1cccc2ccccc12` belongs -6.46%. In the case of `COCCN1Cc2cccc(C(=O)Nc3ccc(S(=O)(=O)N4CCCCC4)cc3)c2C1=O`, the “hERG current change (%, negative = inhibition) at 10uM” value was -4.49%. To `CCOc1ccc(OCC(=O)NCc2n[nH]c(=O)c3ccccc23)cc1` belongs -2.6%; to `C=CCNC(=O)C1CC(=O)N(c2ccc(OCC(=O)Nc3c(C)cccc3C)cc2)C1` (centres unmarked), 9.63%. To `CCOC(=O)N1CCN(C(=O)c2ccc(N(Cc3ccccc3Cl)S(C)(=O)=O)cc2)CC1` belongs -0.267%; to `CCN(CC)S(=O)(=O)c1ccc(C(C)NC(=O)Cc2c[nH]c3ccccc23)cc1` (centres unmarked), 9.07%; to `Cc1ccccc1-n1cc(CNC(=O)CC2C(=O)NCCN2C/C=C/c2ccccc2)cn1` (centres unmarked), -3.76%. `CC(=O)c1ccc(OCC(=O)Nc2cccc(S(=O)(=O)N3CCCC3)c2)cc1`: the “hERG current change (%, negative = inhibition) at 10uM” value is given as -13.3%. To `c1ccc2c(c1)OCC(c1nnc3n1-c1ccccc1SC3)O2` (centres unmarked) belongs -34.2%; to `CN1CCN(S(=O)(=O)c2ccc(SCCOc3ccc(Cl)cc3)nc2)CC1`, 0.4%. To `O=C(NCc1ccccn1)Nc1ccccc1` belongs 26.6%.

For the molecule `O=S(=O)(c1cc(F)ccc1F)N1CCC2(CC1)OCCN2S(=O)(=O)c1ccccc1`, the “hERG current change (%, negative = inhibition) at 10uM” value is on record as -23.7%. With `COC(=O)c1cc(C(=O)Nc2cc(C)on2)cc([N+](=O)[O-])c1`, the “hERG current change (%, negative = inhibition) at 10uM” value stood at 16%. Regarding `Cc1ccc([N+](=O)[O-])cc1NC1OC(CO)C(O)C1O` (centres unmarked), the “hERG current change (%, negative = inhibition) at 10uM” value is -2.95%.

For the molecule `CCN1CCc2c(sc(NC(=O)c3ccc4ccccc4c3)c2C(N)=O)C1.Cl`, the “hERG current change (%, negative = inhibition) at 10uM” value was 7.59%. Take `CS(=O)(=O)N(CC(=O)O)c1cc(Cl)cc(Cl)c1`: the “hERG current change (%, negative = inhibition) at 10uM” value was found to be 10.3%. Regarding `COc1cccc(NC=C2C(=O)OC3(CCCCC3)OC2=O)c1`, the “hERG current change (%, negative = inhibition) at 10uM” value is listed as -17.6%. As for `Cc1ccc(NC(=O)NCC2CCN(Cc3cccc(Cl)c3)CC2)c(Cl)c1`, the “hERG current change (%, negative = inhibition) at 10uM” value is -59.8%. To `CSCCC(NC(N)=O)C(=O)N(C)CC(=O)Nc1cc(C)ccc1C` (centres unmarked) belongs 3.1%; to `CC(C)(C)OC(=O)COc1cc(F)ccc1[N+](=O)[O-]`, -3.54%. To `CC(NC(=O)c1ccccc1NS(C)(=O)=O)c1ccccc1` (centres unmarked) belongs -2.88%.

For the molecule `COc1cc(OC)cc(C(=O)NCc2n[nH]c(=S)n2-c2ccccc2)c1`, the “hERG current change (%, negative = inhibition) at 10uM” value is 17.5%. To `Cn1cc(C(=O)N2CCN(c3cccc(Cl)c3)CC2)c(=O)c2cc(S(=O)(=O)N3CCOCC3)ccc21` belongs -17.6%; to `CCN1CCN(C(c2cc3cc4c(cc3[nH]c2=O)OCO4)c2nnnn2C(C)(C)CC)CC1` (centres unmarked), -2.89%. To `Cc1ccc(-c2nnc(CSc3nnc(COc4cccc5ccccc45)n3-c3ccccc3)o2)cc1` belongs 1.54%. As for `COc1ccc(S(=O)(=O)N2CCC(C(=O)Nc3nnc(CCN4CCCCC4)s3)CC2)cc1`, the “hERG current change (%, negative = inhibition) at 10uM” value is listed as -1.1%. To `O=C(CSCc1cccc(Br)c1)N/N=C/c1ccc2c(c1)OCO2` belongs -12.6%; to `CCN(CC)CC(=O)Nc1ccc2c(c1)Nc1ccccc1CC2.Cl`, -47.3%.

In the case of `CC(NC(=S)Nc1ccc(F)cc1)c1ccccc1` (centres unmarked), the “hERG current change (%, negative = inhibition) at 10uM” value stood at 12.3%. To `CCOc1ccc(-c2noc(COC)n2)cc1OC` belongs 2.88%; to `C=CCc1ccccc1OCC(O)CN(CC)CC.Cl` (centres unmarked), -30.5%; to `Cc1onc(-c2ccccc2Cl)c1C(=O)OCC(=O)Nc1ccc2c(c1)OCO2`, -6.65%. To `CCc1ccc(OCC(=O)N/N=C2\CC(=O)c3ccccc32)cc1` belongs -34%; to `Cc1ccc(N=C2NC(=O)/C(=C/c3cccnc3)S2)c(C)c1`, -22.8%. `O=C(N/N=C/c1ccc(O)c(O)c1)NC12CC3CC(CC(C3)C1)C2`: the “hERG current change (%, negative = inhibition) at 10uM” value is given as -11.8%. On to `Cc1ccc2nsnc2c1S(=O)(=O)N1CCOCC1`, for which the “hERG current change (%, negative = inhibition) at 10uM” value stood at 1.56%.

Consider `O=C(NC(=S)Nc1ccccc1N1CCCC1)c1ccc(-c2cccc([N+](=O)[O-])c2)o1`, for which the “hERG current change (%, negative = inhibition) at 10uM” value is recorded as -26.7%. On to `COc1ccc(NC(=O)NCC(C)CSc2ccc(C)cc2)c(OC)c1` (centres unmarked), for which the “hERG current change (%, negative = inhibition) at 10uM” value is -9.87%. To `CN1C(=O)N2CN(C3CCCCC3)CN3C(=O)N(C)C1C23` (centres unmarked) belongs 9.88%. To `Cc1ccc(NC(=S)NCc2ccc3c(c2)cc(C)n3C)c(C)c1` belongs 31.3%; to `Cc1cccc(-n2ncc3c(NCc4ccccc4)ncnc32)c1`, 12%. Take `CCOC(=O)COc1ccc(-c2nnc(-c3ccccc3)o2)cc1`: the “hERG current change (%, negative = inhibition) at 10uM” value is on record as -0.732%. To `CC1NCCC2(O)CCCCC12` (centres unmarked) belongs 29.4%; to `Cc1cc(Br)ccc1OCCN1CC(C)OC(C)C1.O=C(O)C(=O)O` (centres unmarked), -17.8%; to `CCCc1c(C(=O)N/N=C(\C)CCc2ccc(OC)cc2)nnn1-c1nonc1N`, 21.9%. To `C/C(=N\OC(=O)c1ccc(F)cc1)c1sc(-c2ccccc2)nc1C` belongs 10.7%; to `CSc1nnc(SCC(=O)Nc2ccc3[nH]c(=O)[nH]c3c2)s1`, 10%.

Source of the values: publication PMC4336329 (PLoS ONE, 2015).
